The other results are listed elsewhere or left out. Interaction screen of human proteins with wild-type SARS-CoV-2 proteins by split-DHFR complementation in yeast, 1 µg/mL methotrexate. Value = fitness of the pair (three or more lineages) minus that of the viral protein without a human partner, on a scale set by negative (0) and fused positive (1) controls, mean of up to three cultures; higher = more likely to interact. Active = false discovery rate below 0.05 (one-sided t-test) in at least one culture. Nearly all pairs are not hits, and differences among them are mostly noise (correlation between cultures about 0.3); most hits were seen in one culture only. Human sequences are the Swiss-Prot entries looked up by gene name; the clone may be another isoform. NSP2 values were corrected by the authors for a growth advantage. Listed are human proteins with a hit and a random twelfth of the others.
Legend:
Test in all cases: yeast fitness gain over the viral ORF with no human partner (scaled fitness); higher = more likely to interact
[1] = molecular target: SARS-CoV-2 NSP10
Description: (§1)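 Split mouse DHFR complementation in pooled diploid yeast: human ORFeome clones carry one fragment and viral ORFs the other; barcoded lineages compete in 1 µg/mL methotrexate and fitness is read by barcode sequencing in up to three cultures.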

[2] = molecular target: SARS-CoV-2 NSP12
Description: as §1

[3] = molecular target: SARS-CoV-2 NSP13
Description: as §1

[4] = molecular target: SARS-CoV-2 NSP2
Description: as §1

[5] = molecular target: SARS-CoV-2 NSP6
Description: as §1

[6] = molecular target: SARS-CoV-2 NSP8
Description: as §1

[7] = molecular target: SARS-CoV-2 ORF3B
Description: as §1

[8] = molecular target: SARS-CoV-2 ORF6
Description: as §1

[9] = molecular target: SARS-CoV-2 ORF7A
Description: as §1

[10] = molecular target: SARS-CoV-2 ORF8
Description: as §1

[11] = molecular target: SARS-CoV-2 ORF9B
Description: as §1

[12] = molecular target: SARS-CoV-2 S
Description: as §1

[13] = molecular target: SARS-CoV-2 NSP7
Description: as §1

[14] = molecular target: SARS-CoV-2 ORF10
Description: as §1

[15] = molecular target: SARS-CoV-2 NSP1
Description: as §1

[16] = molecular target: SARS-CoV-2 ORF7B
Description: as §1

[17] = molecular target: SARS-CoV-2 ORF9Bwu (the 73-codon ORF)
Description: as §1

[18] = molecular target: SARS-CoV-2 NSP5
Description: as §1

[19] = molecular target: SARS-CoV-2 ORF3A
Description: as §1

[20] = molecular target: SARS-CoV-2 NSP15
Description: as §1

[21] = molecular target: SARS-CoV-2 NSP9
Description: as §1

[22] = molecular target: SARS-CoV-2 NSP14
Description: as §1

[23] = molecular target: SARS-CoV-2 NSP4
Description: as §1

Measured: yeast fitness gain

B1: DDAH1, O94760 (protein)
chain: MAGLGHPAAFGRATHAVVRALPESLGQHALRSAKGEEVDVARAERQHQLYVGVLGSKLGLQVVELPADESLPDCVFVEDVAVVCEETALITRPGAPSRRKEVDMMKEALEKLQLNIVEMKDENATLDGGDVLFTGREFFVGLSKRTNQRGAEILADTFKDYAVSTVPVADGLHLKSFCSMAGPNLIAIGSSESAQKALKIMQQMSDHRYDKLTVPDDIAANCIYLNIPNKGHVLLHRTPEEYPESAKVYEKLKDHMLIPVSMSELEKVDGLLTCCSVLINKKVDS
inactive: [1] 0.0484 | [2] -0.0844 | [3] 0.0331 | [4] -0.154 | [5] 0.106 | [6] 0.0462 | [7] -0.0883 | [8] -0.0184 | [9] 0.0141 | [10] -0.0652 | [11] 0.0672 | [12] -0.0342

B2: SOHLH1, Q5JUK2 (protein)
chain: MASRCSEPYPEVSRIPTVRGCNGSLSGALSCCEDSARGSGPPKAPTVAEGPSSCLRRNVISERERRKRMSLSCERLRALLPQFDGRREDMASVLEMSVQFLRLASALGPSQEQHAILASSKEMWHSLQEDVLQLTLSSQIQAGVPDPGTGASSGTRTPDVKAFLESPWSLDPASASPEPVPHILASSRQWDPASCTSLGTDKCEALLGLCQVRGGLPPFSEPSSLVPWPPGRSLPKAVRPPLSWPPFSQQQTLPVMSGEALGWLGQAGPLAMGAAPLGEPAKEDPMLAQEAGSALGSDVDDGTSFLLTAGPSSWPGEWGPGFRAGPPA
inactive: [1] 0.0619 | [2] -0.156

B3: EID2B, Q96D98 (protein)
chain: MAEPTGLLEMSELPGDSSVPQVGTASGVSDVLRGAVGGGVRVQEAREGPVAEAARSMARMPGPVPGPIPSSVPGLASAPDPHQQLAFLEINRQLLFREYLDGSSMIPVRLLRDFEERRRLFVEGCKAREAAFDADPPQMDFAAVAFTVALTASEALSPLAD
inactive: [1] 0.108 | [3] 0.124 | [5] -0.0525 | [8] 0.0725 | [11] 0.0317

B4: FPR3, P25089 (protein)
chain: METNFSIPLNETEEVLPEPAGHTVLWIFSLLVHGVTFVFGVLGNGLVIWVAGFRMTRTVNTICYLNLALADFSFSAILPFRMVSVAMREKWPFGSFLCKLVHVMIDINLFVSVYLITIIALDRCICVLHPAWAQNHRTMSLAKRVMTGLWIFTIVLTLPNFIFWTTISTTNGDTYCIFNFAFWGDTAVERLNVFITMAKVFLILHFIIGFSVPMSIITVCYGIIAAKIHRNHMIKSSRPLRVFAAVVASFFICWFPYELIGILMAVWLKEMLLNGKYKIILVLINPTSSLAFFNSCLNPILYVFMGRNFQERLIRSLPTSLERALTEVPDSAQTSNTDTTSASPPEETELQAM
inactive: [1] 0.0566 | [4] -0.301 | [13] 0.000599 | [14] -0.00092 | [7] -0.386 | [10] 0.0452 | [11] -0.0736

B5: SLC35C1, Q96A29 (protein)
chain: MNRAPLKRSRILHMALTGASDPSAEAEANGEKPFLLRALQIALVVSLYWVTSISMVFLNKYLLDSPSLRLDTPIFVTFYQCLVTTLLCKGLSALAACCPGAVDFPSLRLDLRVARSVLPLSVVFIGMITFNNLCLKYVGVAFYNVGRSLTTVFNVLLSYLLLKQTTSFYALLTCGIIIGGFWLGVDQEGAEGTLSWLGTVFGVLASLCVSLNAIYTTKVLPAVDGSIWRLTFYNNVNACILFLPLLLLLGELQALRDFAQLGSAHFWGMMTLGGLFGFAIGYVTGLQIKFTSPLTHNVSGTAKACAQTVLAVLYYEETKSFLWWTSNMMVLGGSSAYTWVRGWEMKKTPEEPSPKDSEKSAMGV
inactive: [15] 0.00791 | [3] -0.103 | [4] -0.187 | [7] 0.0233 | [8] 0.0231 | [16] 0.0259 | [10] -0.0356 | [11] -0.0983 | [17] -0.0641 | [12] -0.209

B6: MSC, O60682 (protein)
chain: MSTGSVSDPEEMELRGLQREYPVPASKRPPLRGVERSYASPSDNSSAEEEDPDGEEERCALGTAGSAEGCKRKRPRVAGGGGAGGSAGGGGKKPLPAKGSAAECKQSQRNAANARERARMRVLSKAFSRLKTSLPWVPPDTKLSKLDTLRLASSYIAHLRQLLQEDRYENGYVHPVNLTWPFVVSGRPDSDTKEVSAANRLCGTTA
inactive: [15] 0.0589 | [2] -0.246 | [3] -0.0296 | [4] -0.0143 | [18] -0.0403 | [14] -0.374 | [19] -0.408 | [7] 0.0462 | [8] 0.0576 | [16] 0.0138 | [10] -0.000821 | [11] -0.227 | [12] -0.0267

B7: MPP1, Q00013 (protein)
chain: MTLKASEGESGGSMHTALSDLYLEHLLQKRSRPEAVSHPLNTVTEDMYTNGSPAPGSPAQVKGQEVRKVRLIQFEKVTEEPMGITLKLNEKQSCTVARILHGGMIHRQGSLHVGDEILEINGTNVTNHSVDQLQKAMKETKGMISLKVIPNQQSRLPALQMFMRAQFDYDPKKDNLIPCKEAGLKFATGDIIQIINKDDSNWWQGRVEGSSKESAGLIPSPELQEWRVASMAQSAPSEAPSCSPFGKKKKYKDKYLAKHSSIFDQLDVVSYEEVVRLPAFKRKTLVLIGASGVGRSHIKNALLSQNPEKFVYPVPYTTRPPRKSEEDGKEYHFISTEEMTRNISANEFLEFGSYQGNMFGTKFETVHQIHKQNKIAILDIEPQTLKIVRTAELSPFIVFIAPTDQGTQTEALQQLQKDSEAIRSQYAHYFDLSLVNNGVDETLKKLQEAFDQACSSPQWVPVSWVY
inactive: [15] 0.00702 | [2] -0.0868 | [3] 0.0278 | [20] -0.2 | [4] -0.0953 | [18] -0.0236 | [5] -0.0477 | [6] 0.0789 | [14] 0.0714 | [7] -0.066 | [8] 0.0394 | [16] 0.0253 | [10] 0.00458 | [11] -0.113 | [12] -0.113

B8: PCDHB3, Q9Y5E6 (protein)
chain: MEAGGERFLRQRQVLLLFVFLGGSLAGSESRRYSVAEEKEKGFLIANLAKDLGLRVEELAARGAQVVSKGNKQHFQLSHQTGDLLLNEKLDREELCGPTEPCILHFQILLQNPLQFVTNELRIIDVNDHSPVFFENEMHLKILESTLPGTVIPLGNAEDLDVGRNSLQNYTITPNSHFHVLTRSRRDGRKYPELVLDKALDPEEQPELSLTLTALDGGSPPRSGTAQINIQVLDINDNAPEFAQPLYEVAVLENTPVNSVIVTVSASDLDTGSFGTISYAFFHASEEIRKTFQLNPITGDMQLVKYLNFEAINSYEVDIEAKDGGGLSGKSTVIVQVVDVNDNPPELTLSSVNSPIPENSGETVLAVFSVSDLDSGDNGRVMCSIENNLPFFLKPSVENFYTLVSEGALDRETRSEYNITITITDLGTPRLKTKYNITVLVSDVNDNAPAFTQISYTLFVRENNSPALHIGSVSATDRDSGTNAQVTYSLLPPQDPHLPLSSLVSINADNGHLFALRSLDYEALQAFEFRVGATDRGSPALSSEALVRVLVLDANDNSPFVLYPLQNGSAPCTELVPRAAEPGYLVTKVVAVDGDSGQNAWLSYQLLKATEPGLFGVWAHNGEVRTARLLSERDAAKHRLVVLVKDNGEPPRSATATLHVLLVDGFSQPYLPLPEAAPAQAQADLLTVYLVVALASVSSLFLFSVLLFVAVRLCRRSRAASVGRCSVPEGPFPGQMVDVSGTGTLSQSYQYEVCLTGGSGTNEFKFLKPIIPNFVAQGAERVSEANPSFRKSFEFS
inactive: [1] 0.0238 | [3] -0.397 | [18] 0.0234 | [14] -0.24 | [16] 0.11 | [10] -0.0757 | [11] 0.00804 | [12] -0.0361

B9: TRDV2, A0JD36 (protein)
chain: MQRISSLIHLSLFWAGVMSAIELVPEHQTVPVSIGVPATLRCSMKGEAIGNYYINWYRKTQGNTMTFIYREKDIYGPGFKDNFQGDIDIAKNLAVLKILAPSERDEGSYYCACDT
inactive: [15] 0.197 | [1] -0.0488 | [2] 0.0668 | [3] -0.0382 | [4] -0.141 | [18] 0.0505 | [21] -0.0175 | [7] -0.144 | [8] 0.0397 | [16] 0.0103 | [11] 0.0787 | [17] -0.0512 | [12] -0.0212

B10: CCDC42, Q96M95 (protein)
chain: MSLGIMEEEDLAEYFRLQYGERLLQMLQKLPNVEGASESPSIWLLEKKKETEIMHQTMVQKKKMFQRRMETLNLRWEELGVKEAQLKAHIQKSEQFIQENDQKRIRAMKKANKERELKCQHMQELTKRKQEMVALRLEHQRLSAKLKDYYIFNKYLEKVVENSEFEEIHEVIARYKTLVSMRHDLMQSAQEGQEKIERAKARLARYMEEKDDEILQQNNELARLQMRFDRARSNVIFWESRWAHIQNTAAKKTLLLGTIKMATLNLFQIVSKHLKEVTEVALEDTHKQLDMIQQFIQDRSDIWAEVKKKEQQRVRI
inactive: [1] 0.0122 | [2] -0.0193 | [3] -0.163 | [22] -0.0252 | [4] -0.102 | [23] -0.0631 | [18] -0.0442 | [13] -0.107 | [6] 0.0175 | [14] 0.0345 | [7] 0.103 | [8] -0.0704 | [16] -0.11 | [10] -0.0181 | [11] -0.0981

B11: TBCA, O75347 (protein)
chain: MADPRVRQIKIKTGVVKRLVKEKVMYEKEAKQQEEKIEKMRAEDGENYDIKKQAEILQESRMMIPDCQRRLEAAYLDLQRILENEKDLEEAEEYKEARLVLDSVKLEA
active: [4] 0.468
inactive: [15] 0.0908 | [1] 0.0419 | [2] -0.034 | [3] 0.0309 | [22] -0.0832 | [23] -0.29 | [5] -0.129 | [13] -0.0656 | [21] 0.00745 | [14] -0.0983 | [7] -0.037 | [8] -0.0283 | [9] -0.115 | [16] -0.0664 | [10] 0.0231 | [11] -0.0237 | [12] -0.00122

From the supplement of paper PMC11741623
